# Source: the supplement of paper PMC3334620
# Whole data set: some 33,000 sequences, median “E-score (-0.5 to 0.5)” near -0.054, cut for the highest 2% near 0.39. The list shows a part of the results.
# Biological target: Ylr278c (UniProt Q05854)
# Test: PBM E-score (8-mer binding enrichment) (E-score (-0.5 to 0.5)); higher = stronger / more preferred TF binding; most listed sequences are background and not binding sites
# Settings: protein concentration: 200 nM; construct: GST-DNA-binding domain
# Summary of the method: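 Yeast transcription factors, full-length or as DNA-binding domains, were expressed with a GST tag using PURExpress in vitro transcription/translation. At about 100-200 nM they were applied to universal all-10-mer Agilent arrays, double-stranded by primer extension on fresh or once-stripped slides. Fluorescent anti-GST detected bound protein, and masliner normalised the scans. E-scores for ungapped eight-base words, pooled with reverse complements, came from the Universal PBM Analysis Suite.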
row,Sequence,PBM E-score
1,GTCAGAGA,-0.24
2,TTATGGAA,-0.0616
3,ATGCAAAC,-0.0897
4,ATTGACGA,-0.135
5,CAGCCTGA,-0.225
6,CCCATAAA,0.0458
7,ACTTTTAC,0.181
8,AGCACGGC,0.182
9,ACAGGAGT,-0.0336
10,GAGTCCCC,-0.104
11,ATCCAATC,-0.0193
12,ACTTAGAA,-0.128
13,TACGCTGA,0.0224
14,AGAAATAA,0.0262
15,AATGGTGA,-0.157
16,GCCATAGA,-0.271
17,CGGCGAAA,0.381
18,AATCTTAA,-0.301
19,CGGGCTGA,0.111
20,AGACTTAA,-0.264
21,CGCCTGTA,0.0202
22,ATCCGGAG,0.486
23,AAACAATG,-0.226
24,AATAAATG,0.0298
25,GTGGGCTA,-0.111

row,Sequence,PBM E-score
1,AGAAGTCG,-0.0267
2,CATGTCTA,-0.322
3,ACATGCAT,-0.148
4,CCCACCGG,0.41
5,GTGGATGA,-0.244
6,CGTAGGAG,0.0338
7,ACTGGTCC,0.0527
8,CACGTCAG,-0.229
9,ATAACTAA,-0.132
10,ATGTTTAC,-0.0405
11,AAACCTTG,-0.277
12,TCCATCAA,0.0618
13,GGAGGTGA,0.201
14,GATGCTTA,-0.0379
15,AGTCAACC,-0.0996
16,GGCTGCAC,-0.0358
17,GGCATTAA,0.0355
18,AAGTATCT,-0.129
19,GCGCAGAA,0.036
20,CGCTCAAC,0.0166
21,ACATTCGA,0.0919
22,ATAATAAT,-0.0152
23,AGCAGGAT,-0.079
24,ACCCCCGC,0.266
25,GAACAGAC,-0.0318

row,Sequence,PBM E-score
1,GTTGGGAA,-0.0423
2,GGGATATA,0.151
3,AGCCGGGC,0.167
4,GAGCAGGC,-0.156
5,AGCCCCGA,0.258
6,ATCATAAG,-0.0257
7,TAGGCCAA,-0.0188
8,GTGGGTAA,-0.082
9,ACTGAAGT,-0.136
10,GACAGGCA,-0.147
11,ATTCGATC,0.12
12,AAAGTATT,-0.0984
13,CGGTGTAA,0.254
14,CACGCGCC,0.172
15,GGTATAGA,-0.0727
16,CCTGGATC,-0.238
17,ATCTTCTC,0.223
18,CTGCGCAG,-0.0934
19,CTCACGCA,-0.0469
20,CCATGCCC,0.0194
21,ACTTGTTA,-0.0563
22,ACCCGCAA,-0.0209
23,CGAACCTA,0.132
24,ATTATAAC,0.0111
25,CTGGGCCA,-0.288

row,Sequence,PBM E-score
1,ATGCCAAC,-0.188
2,CAACGATA,-0.046
3,AAATCTAG,-0.178
4,GCGACTGA,-0.207
5,GTGTTAGA,-0.129
6,AGGAGTCG,-0.167
7,CAGCACAG,-0.164
8,AGATCCGC,0.37
9,GCTGGCAA,0.00941
10,ATTAGTGC,0.131
11,TCAGGCGA,-0.171
12,CACAGCGG,0.0351
13,AATAGGGA,0.0154
14,GAACAATA,0.0307
15,ATTCCGTG,0.361
16,ACTATCTA,-0.0969
17,CAGAAGAG,-0.316
18,CCGTCGCG,0.256
19,AAATTTGT,-0.026
20,AGGAAGAT,0.0761
21,GAGAAGAC,0.0429
22,GGTGTTTA,0.198
23,CCGAGAGG,0.0757
24,GTTCGGGA,0.277
25,GAGCAAGA,0.0283

row,Sequence,PBM E-score
1,CAGCCTCG,-0.251
2,CCTGCCCG,0.0809
3,AGAATGTG,-0.285
4,GTGAGATA,0.052
5,AGACTAAA,0.0368
6,CACGCCAG,-0.159
7,ATCCGAGC,0.266
8,CCACGAAG,-0.297
9,CTTTACCA,-0.185
10,CCGTGCCG,0.199
11,CGTACAAA,-0.149
12,GAACCTGC,-0.0346
13,AAGCCGTC,0.235
14,ACTGTCAT,-0.191
15,AGATTTAC,0.0367
16,AAACAGGC,-0.103
17,GGAGAGAA,0.148
18,AAGAACAA,0.0618
19,ATGGTACC,-0.105
20,CTTCGATC,-0.0803
21,TGCACACA,-0.237
22,CACAACGG,0.067
23,CATGGCCG,0.224
24,ATGGAAGG,-0.213
25,GATCCGTA,0.158

row,Sequence,PBM E-score
1,CCTTGAGC,-0.214
2,CAAGAATA,0.0577
3,ATCTACGC,0.181
4,TGGTAGAA,-0.169
5,TAAAAGAA,-0.213
6,CCCTACCG,-0.00523
7,CATACTGC,-0.113
8,CAGGCGGG,0.084
9,AACAGTCA,-0.258
10,ACAGTCAT,-0.24
11,ACCGCTCC,0.172
12,AGTGGCAC,-0.174
13,CGGTAACC,0.147
14,GTTCAAAC,0.0451
15,ATGAAGAG,-0.0752
16,ATGACTCA,-0.267
17,CTTCGAAA,-0.221
18,AAGTGAGG,-0.242
19,TCCGACAA,0.39
20,CCTGCCAC,-0.181
21,CTTTTCGC,0.191
22,TCAAAACA,0.00964
23,AATTTGTC,-0.0687
24,ATGCTCTA,-0.163
25,TATAAGAA,-0.0902

row,Sequence,PBM E-score
1,CGGGTGAG,0.167
2,GAATGAAA,0.0519
3,CTTATAAG,0.0589
4,ACTAGATG,-0.252
5,CGGTGTCA,0.0635
6,AACACTCC,0.248
7,AAAGCTCC,0.182
8,AACGGGTG,0.107
9,CCCCGGCG,0.348
10,ACCCGCTG,0.0701
11,CTCCGACC,0.458
12,CAACTCCG,0.486
13,AGCTAAGC,-0.164
14,ATCCGCAA,0.193
15,AACGTAGA,-0.0968
16,CTCTTGCC,-0.0784
17,AAACGGGC,0.00361
18,TCACTCAA,-0.2
19,GCTTACCC,-0.23
20,ATATTTCG,0.14
21,AAGTATGC,-0.23
22,ATGCCGTC,0.219
